Among all 52,000 compounds or so, about 1,700 (3.3%) were called active. No stated cut-off is given here; in the data, active means survival mostly below about 52% (no sharp cut-off); inactive means mostly above about 56%. The list shows a part of the results.
These compounds were tested on Wild type (assay: growth inhibition of S. aureus wild type versus tarO mutant, primary screen, teichoic acid synthesis inhibitors, RN4220, OD600 (AID 463173)). Conditions: S. aureus RN4220 wild type/DeltatarO growth, OD600, 18 h, active compounds read low, screened at 18.75 µg/mL (by protocol).

Structure (SMILES)	survival
O=C(CS(=O)(=O)c1cccc2nsnc12)NCc1ccc(Cl)cc1	inactive: 152%
COc1ccc(-c2c(C)nn3c4c(cnc23)C(=O)CC(c2ccccc2)C4)cc1 (centres undefined)	inactive: 97%
O=C(O)CCc1ccc(-c2cccs2)[nH]1	inactive: 112%
Cc1nc2nc(-c3ccc(Cl)cc3Cl)nn2c(C)c1CCC(=O)Nc1ccc(F)cc1	inactive: 98%
COc1cccc(N2CC(NC(=O)c3ccc4c(c3)OCO4)CC2=O)c1 (centres undefined)	inactive: 79%
CCCCN(C)CCCNC(=O)CN1C(=O)COc2ccc(S(=O)(=O)N3CCOCC3)cc21	inactive: 78%
O=C(N1CCOCC1)N1CCC(NC(=O)C23CC4CC(CC(C4)C2)C3)CC1	inactive: 107%
CC(=O)c1ccc(NC(=O)C2CCCN(S(=O)(=O)c3ccc4c(c3)CCCN4C(C)=O)C2)cc1 (centres undefined)	inactive: 92%
COc1ccccc1N1CCN(S(=O)(=O)c2c(C)sc3ncn(CC(=O)Nc4ccc(C(F)(F)F)cc4)c(=O)c23)CC1	inactive: 88%
Cc1cc(C)c(NC(=O)CCCN2C(=O)COc3ccc(C)cc32)c(C)c1	inactive: 116%
CCCCn1c(=O)c(C(=O)OCC)c(O)c2ccccc21	inactive: 100%
COc1ccc(CCNC(=O)CN(c2cc(C(F)(F)F)ccc2Cl)S(C)(=O)=O)cc1	inactive: 68%
Cc1ccc(OCC(=O)Nc2ccccc2C(=O)OCc2cc(=O)n3ccsc3n2)cc1C	inactive: 72%
CCc1ccc(NC(=O)c2cc3nc(-c4ccc(C)cc4)cc(C(F)(F)F)n3n2)cc1	inactive: 60%
COC(=O)c1sc(NC(=O)c2cc3nc(-c4ccc(Br)cc4)cc(C(F)(F)F)n3n2)c(C(=O)OC)c1C	inactive: 49%
O=C(O)Cc1sc(Nc2ccccc2Cl)nc1-c1ccccc1	inactive: 63%
CCOC(=O)c1c(NC(=O)Cc2coc3cc(C)ccc23)sc2c1CCCC2	inactive: 107%
O=C(Cn1ccc2cc(S(=O)(=O)N3CCCCC3)ccc21)NCCc1ccc(Cl)cc1	inactive: 73%
CCOC(=O)c1cc(S(=O)(=O)N2CCN(c3cc(C)ccc3C)CC2)[nH]n1	inactive: 90%
Cc1cccc(C)c1N1CC(c2nc3ccccc3n2CC(=O)OC(C)C)CC1=O (centres undefined)	inactive: 85%
COc1ccccc1Nc1nn2c(=O)c3ccc(C(=O)N4CCCCC4)cc3nc2s1	inactive: 70%
CCC1=NN(C(=O)COc2ccccc2C)C(O)(c2ccncc2)C1 (centres undefined)	inactive: 107%

Structure (SMILES)	survival
COc1ccc(NC(=O)CSc2nc3cc(OC)c(OC)cc3c3nc(-c4ccccc4)nn23)cc1Cl	inactive: 129%
CCCN(CCC)C(=O)CSc1nc2ccccc2c(=O)n1Cc1ccco1	inactive: 72%
COc1ccc(CC(=O)NCc2nc3cccnc3n2Cc2ccc(C)cc2)cc1	inactive: 69%
COc1cc(-c2ccno2)ccc1S(=O)(=O)N1CCN(c2ccccc2F)CC1	inactive: 81%
COC(=O)c1ccc(NC(=O)C(=O)NCCc2sc(-c3cccc(F)c3)nc2C)cc1	inactive: 68%
CC1CCN(S(=O)(=O)c2cc3c4c(c2)CC(=O)N4CCC3)CC1	inactive: 75%
CC1CCCCN1C(=O)C12CCC(C)(C(=O)C1)C2(C)C (centres undefined)	inactive: 97%
Cc1ccc(-c2c(C)n3c4c(=O)n(C)c(=O)n(C)c4nc3n2-c2cccc(O)c2)cc1	inactive: 129%
Fc1ccc(-c2cc(-c3ccccc3)c3c(n2)-c2cc(F)ccc2OC3)cc1	inactive: 104%
Cc1cc(C)cc(NC(=O)CSc2oc(-c3cccs3)nc2S(=O)(=O)c2ccccc2)c1	inactive: 147%
CCC1CCCCN1C(=O)CSc1ncc(-c2ccc(F)cc2)n1CC (centres undefined)	inactive: 104%
COc1ccc(S(=O)(=O)NCC(c2ccco2)N2CCOCC2)cc1 (centres undefined)	inactive: 135%
CN(C)S(=O)(=O)c1ccc2c(c1)nnn2CCNC(=O)Nc1ccc(Br)cc1	inactive: 59%
Cn1c(=O)c2c(nc(NCc3ccccc3)n2Cc2ccccc2Cl)n(C)c1=O	inactive: 72%
O=C(C1CC1)N1CCN(c2nc3ccc(F)cc3s2)CC1	inactive: 128%
COc1cccc(OCc2nc3ccccc3n2CCOc2ccccc2C)c1	inactive: 55%
CCCCOc1ccc(CNC(=O)c2cnc3sc(N4CCOCC4)nn3c2=O)cc1	inactive: 97%
O=C(CCn1ccc2cc(S(=O)(=O)N3CCCC3)ccc21)NCc1cccc(Br)c1	inactive: 131%
COc1ccc(CCNC(=O)CCCCn2c(=O)c3ccccc3n(Cc3ccc(F)cc3Cl)c2=O)cc1OC	inactive: 90%
Cc1ccc(-c2nc3ncccc3o2)cc1NC(=O)c1cccc(OCC(C)C)c1	inactive: 74%
Cc1ccc(C(=O)NCC(c2cccnc2)N2CCc3ccccc32)cc1C (centres undefined)	inactive: 78%
Cc1ccc(C)c(Nc2nn3c(=O)c4ccc(C(=O)NC5CCCCC5)cc4nc3s2)c1	inactive: 73%

Reference: PubChem BioAssay AID463173 (ICCB-Longwood Screening Facility, Harvard Medical School, 2010)
